# In PubChem BioAssay AID1347120 (National Center for Advancing Translational Sciences (NCATS), 2019):
# Among all 390,000 compounds or so, about 930 (0.24%) were called active. The shares of active, inactive and inconclusive entries below differ from those in the screen. Calls come from the whole dose curve; as a rule, active = well fitted activation curve with a large enough effect; inconclusive = small, poorly fitted or top-dose-only effect; inactive = no such curve, though single readings can be large or run the other way. Potencies beside an inconclusive call are fits to weak or partial responses and may not hold up.
# Assay: qHTS for Suppressors of FUS Proteinopathy: Primary screen using FUS-linked yeast assay; note: nearly all actives have a fitted effect of over 55% in size;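 for growth rescue (activation): plate controls were DMSO vehicle for no effect and reference control for full effect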
# Details: S. cerevisiae FUS-expressing, OD600, 24 h; Potency: growth rescue; growth rescue (activation): at 76.6 µM (top of the series)
# How it was run: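 Galactose (2%) drives FUS expression in yeast precultured in raffinose; seeding density OD 0.005. Test compounds incubated 24hr at 30C and 99% humidity before absorbance at 600 nm was measured.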
# Potency is the fitted concentration of half-maximal effect; tags give direction and shape of the fitted curve.
SMILES,Potency,growth rescue (activation)
CCCCC1=CC2=C(c3ccco3)C(=O)C(C)(OC(=O)c3ccc(OC)cc3)C(=O)C2=CN1C1CC1 (configuration not stated),"inconclusive: 28.2 µM [activator, partial curve]",
COC(=O)c1cc(OC)c(OC)cc1NC(=O)C1CCC(=O)N1S(=O)(=O)c1ccc(C)cc1 (configuration not stated),"inconclusive: 50.1 µM [activator, single point]",
Cc1cccc(NC(=S)N2CCC(N(C)CC3CCCO3)CC2)c1C (configuration not stated),,inconclusive: 60.3% [activator]
CC(C)NC(=O)Nc1ccc2c(c1)C(=O)N([C@H](C)CO)C[C@H](C)[C@@H](CN(C)S(=O)(=O)c1cccs1)O2,"inconclusive: 25.1 µM [activator, single point]",
COc1ccc(N/C=C(\C#N)c2nc3ccccc3n2C)c(OC)c1,"inconclusive: 39.8 µM [activator, partial curve, poor fit]",
COc1ccc(OC)c(NC(=O)CN2CCC(NC(=O)c3ccccc3C)CC2)c1,,inactive: -20%
C[C@H](CO)N1C[C@H](C)[C@@H](CN(C)S(=O)(=O)c2ccc(F)cc2)Oc2c(NC(=O)Nc3ccccc3)cccc2C1=O,"inconclusive: 22.4 µM [activator, single point]",
COc1ccc(OCc2cc(C(=O)N(C)Cc3cc(C4CC4)n[nH]3)no2)c(Cl)c1,"inconclusive: 17.8 µM [activator, single point]",
COC(=O)[C@]12C[C@H](CC(=O)N3CCN(C(=O)c4ccco4)CC3)C(=O)N(Cc3ccc(Cl)cc3Cl)C1=C[C@H](COCc1ccccc1)O[C@@H]2C,"inconclusive: 31.6 µM [activator, single point]",
CCOC(=O)c1cc2cc(-c3c(C(=O)OCC)oc4cc(O)cc(O)c4c3=O)ccc2o1,"inconclusive: 25.1 µM [activator, partial curve, poor fit]",
CCCn1c(=O)c2c(nc3n2CC(C)CN3Cc2ccccc2)n(C)c1=O (configuration not stated),"inconclusive: 14.1 µM [activator, partial curve, poor fit]",
COC(=O)c1sccc1NC(=O)Nc1ccc(Cl)c(Cl)c1,"inconclusive: 2.82 µM [activator, full curve]",
CCOC(=O)c1cnc2c(Cl)cc(Cl)cc2c1NCCOCCO,,inactive: 9.26%
CCOC(=O)C1CCN(C(=O)c2ccc3c(c2)N=C(CC)c2cc(C)ccc2S3)CC1,"inconclusive: 25.1 µM [activator, single point]",
O=C(Nc1ccc2c(c1)OCO2)N1CCN(c2cccc(C(F)(F)F)c2)CC1,,inactive: 5.27%
Cn1c(=O)cc(SCC(=O)N2CCN(c3ccccc3)CC2)c2ccccc21,"inconclusive: 25.1 µM [activator, single point]",
COc1cccc(C(=O)Nc2ccc(C(=O)OCc3cc(=O)n4nc(C5CC5)sc4n3)cc2)c1,,inactive: 3.61%
O=c1[nH][nH]c2c1[C@H](c1ccc(F)cc1)O[C@H](CCc1ccccc1)C2,"inconclusive: 50.1 µM [activator, single point]",
Cc1[nH]c2ccccc2c1C(=O)C(=O)N1CC=C(c2ccccc2)CC1,"inconclusive: 28.2 µM [activator, single point]",

SMILES,Potency,growth rescue (activation)
CC1CCN(C(=O)C(C)Sc2nc(-c3ccccc3)cc(C(F)(F)F)n2)CC1 (configuration not stated),"inconclusive: 10 µM [activator, partial curve, poor fit]",
COc1cc2c(cc1OC)CN(c1nc(CN3CCOCC3)nc3sc4c(c13)CCC(C)C4)CC2 (configuration not stated),"inconclusive: 14.1 µM [activator, single point]",
O=C(Nc1ccc(-c2csc(Nc3ccccc3)n2)cc1)c1cc([N+](=O)[O-])cc(C(F)(F)F)c1,,inactive: -14.3%
CC(C)(C)OC(=O)NCCCC[C@H](NC(=O)c1[nH]cnc1C(=O)Nc1ccc(CNC(=O)OC(C)(C)C)cc1)C(=O)OC(C)(C)C,"inconclusive: 4.47 µM [activator, full curve]",
O=C(Cc1cccc2ccccc12)N/N=C/c1ccc(Sc2nc3ccccc3s2)o1,"inconclusive: 12.6 µM [activator, partial curve, poor fit]",
CCC1CN(C(=O)N2CCC(C(=O)N3CCN(c4cc(C)ccc4C)CC3)CC2)c2ccccc2O1 (configuration not stated),"inconclusive: 15.8 µM [activator, partial curve, poor fit]",
CC(C)(C)OC(=O)NCCCCCNC(=O)c1[nH]cnc1C(=O)NC1CCN(C(=O)OC(C)(C)C)CC1,"inconclusive: 35.5 µM [activator, single point]",
Cc1ccc(C)c(CNC(=O)c2sc3ncnc(N(C)C4CCCCC4)c3c2C)c1,,inactive: -8%
CSc1ccc(C2C(C(=O)c3ccco3)=C(O)C(=O)N2c2nnc(SC)s2)cc1 (configuration not stated),"inconclusive: 7.94 µM [activator, partial curve]",
CCc1nc2ccc(C(=O)Nc3cc(-c4ccccc4)ccc3OC)cn2c1N(C)Cc1ccc(OC)cc1,"inconclusive: 20 µM [activator, single point]",
Cc1cccc(N2CC(C(=O)Nc3ccc(S(=O)(=O)N4CCCCC4)cc3)CC2=O)c1C (configuration not stated),"inconclusive: 28.2 µM [activator, single point]",
CCc1ccc(NC(=O)CSc2nc3c([nH]c4ccccc43)c(=O)n2-c2cccc(OC)c2)cc1,"inconclusive: 39.8 µM [activator, single point]",
Cc1ccc2[nH]c(=O)c(CN(CCc3ccccc3)Cc3nnnn3CC3CCCO3)cc2c1 (configuration not stated),"inconclusive: 28.2 µM [activator, partial curve]",
CCCCCn1c(=O)c2c(nc3n2CCN3c2ccc(Br)cc2)n(C)c1=O,,inactive: -28.7%
O=C1COc2ccc(-c3csc(NCCc4ccccc4)n3)cc2N1,"inconclusive: 11.2 µM [activator, partial curve]",
CCc1cccc(C)c1NC(=O)CCS(=O)(=O)c1ccc2c(c1)oc(=O)n2C,,inactive: 13.4%
Cc1cccc(Nc2nc(-c3ccncc3)cs2)c1,,inactive: -26.1%
COc1ccccc1-c1noc(CCCC(=O)NC2CCCCC2)n1,"inconclusive: 22.4 µM [activator, partial curve, poor fit]",
